Assay results reported in publication PMC5482489.
These are yes or no findings as the source states them, for the method shown. Binding seen in cells or lysates may run through a third protein. Some results given as binding are weak or reduced against the parent protein; the word gives no strength. For some of these results: Sequences can lack the tags named with a protein.

T1: FLAG-tagged OATP1B3 (human) (UniProt Q9NPD5)
T1 sequence: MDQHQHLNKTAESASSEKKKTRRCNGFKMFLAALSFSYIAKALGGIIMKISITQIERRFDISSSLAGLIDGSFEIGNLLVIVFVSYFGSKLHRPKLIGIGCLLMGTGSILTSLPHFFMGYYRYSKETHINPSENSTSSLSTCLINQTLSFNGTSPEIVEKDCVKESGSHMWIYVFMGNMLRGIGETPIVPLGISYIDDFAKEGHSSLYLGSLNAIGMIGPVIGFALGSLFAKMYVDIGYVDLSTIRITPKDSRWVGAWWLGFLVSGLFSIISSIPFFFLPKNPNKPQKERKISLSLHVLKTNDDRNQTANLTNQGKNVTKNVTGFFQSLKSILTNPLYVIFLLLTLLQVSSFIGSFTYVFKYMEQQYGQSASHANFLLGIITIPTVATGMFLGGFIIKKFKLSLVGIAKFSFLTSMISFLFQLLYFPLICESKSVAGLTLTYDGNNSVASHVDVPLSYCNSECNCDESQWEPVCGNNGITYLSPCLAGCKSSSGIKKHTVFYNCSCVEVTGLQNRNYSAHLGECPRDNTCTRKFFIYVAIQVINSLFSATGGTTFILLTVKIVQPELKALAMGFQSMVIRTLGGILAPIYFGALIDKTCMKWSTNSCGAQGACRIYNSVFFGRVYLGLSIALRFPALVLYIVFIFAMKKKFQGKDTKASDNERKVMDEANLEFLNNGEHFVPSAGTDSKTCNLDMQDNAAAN

T2: OATP1B3, endogenous in human liver (human (endogenous in liver tissue)) (UniProt Q9NPD5)
T2 sequence: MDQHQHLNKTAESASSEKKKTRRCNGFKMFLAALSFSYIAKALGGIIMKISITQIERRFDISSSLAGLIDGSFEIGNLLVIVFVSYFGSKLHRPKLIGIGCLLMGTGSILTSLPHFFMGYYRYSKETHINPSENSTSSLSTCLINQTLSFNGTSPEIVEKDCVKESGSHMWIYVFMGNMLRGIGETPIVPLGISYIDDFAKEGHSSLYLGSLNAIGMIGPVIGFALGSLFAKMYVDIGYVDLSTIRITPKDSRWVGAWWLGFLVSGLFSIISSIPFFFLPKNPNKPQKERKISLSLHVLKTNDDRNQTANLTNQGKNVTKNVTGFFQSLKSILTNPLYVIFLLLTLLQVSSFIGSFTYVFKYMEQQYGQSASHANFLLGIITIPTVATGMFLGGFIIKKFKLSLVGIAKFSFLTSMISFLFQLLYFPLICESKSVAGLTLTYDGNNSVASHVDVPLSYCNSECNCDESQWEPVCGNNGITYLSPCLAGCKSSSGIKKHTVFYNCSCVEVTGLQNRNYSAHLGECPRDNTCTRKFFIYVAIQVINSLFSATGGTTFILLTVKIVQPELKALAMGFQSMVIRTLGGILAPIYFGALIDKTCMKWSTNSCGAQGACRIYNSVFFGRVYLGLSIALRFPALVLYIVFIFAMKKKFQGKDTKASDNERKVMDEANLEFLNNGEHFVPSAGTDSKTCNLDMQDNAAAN


Experiments:
[1] = target: T1, FLAG-tagged OATP1B3 (human); assay: proximity ligation; Duolink PLA on fixed, transiently co-transfected HEK293 cells; rabbit anti-His and mouse anti-FLAG antibodies
[2] = target: T2, OATP1B3, endogenous in human liver (human (endogenous in liver tissue)); assay: proximity ligation; Duolink PLA on frozen human liver sections; goat anti-NTCP and rabbit anti-OATP1B3 antibodies

| binding [1] | binding [2] | Binder |
| --- | --- | --- |
| binds | – | His-tagged OATP1B1 (protein, UniProt Q9Y6L6 1-691) MDQNQHLNKTAEAQPSENKKTRYCNGLKMFLAALSLSFIAKTLGAIIMKSSIIHIERRFEISSSLVGFIDGSFEIGNLLVIVFVSYFGSKLHRPKLIGIGCFIMGIGGVLTALPHFFMGYYRYSKETNINSSENSTSTLSTCLINQILSLNRASPEIVGKGCLKESGSYMWIYVFMGNMLRGIGETPIVPLGLSYIDDFAKEGHSSLYLGILNAIAMIGPIIGFTLGSLFSKMYVDIGYVDLSTIRITPTDSRWVGAWWLNFLVSGLFSIISSIPFFFLPQTPNKPQKERKASLSLHVLETNDEKDQTANLTNQGKNITKNVTGFFQSFKSILTNPLYVMFVLLTLLQVSSYIGAFTYVFKYVEQQYGQPSSKANILLGVITIPIFASGMFLGGYIIKKFKLNTVGIAKFSCFTAVMSLSFYLLYFFILCENKSVAGLTMTYDGNNPVTSHRDVPLSYCNSDCNCDESQWEPVCGNNGITYISPCLAGCKSSSGNKKPIVFYNCSCLEVTGLQNRNYSAHLGECPRDDACTRKFYFFVAIQVLNLFFSALGGTSHVMLIVKIVQPELKSLALGFHSMVIRALGGILAPIYFGALIDTTCIKWSTNNCGTRGSCRTYNSTSFSRVYLGLSSMLRVSSLVLYIILIYAMKKKYQEKDINASENGSVMDEANLESLNKNKHFVPSAGADSETHC |
| no binding | – | His-tagged ASBT (protein, UniProt Q12908 1-348) MNDPNSCVDNATVCSGASCVVPESNFNNILSVVLSTVLTILLALVMFSMGCNVEIKKFLGHIKRPWGICVGFLCQFGIMPLTGFILSVAFDILPLQAVVVLIIGCCPGGTASNILAYWVDGDMDLSVSMTTCSTLLALGMMPLCLLIYTKMWVDSGSIVIPYDNIGTSLVSLVVPVSIGMFVNHKWPQKAKIILKIGSIAGAILIVLIAVVGGILYQSAWIIAPKLWIIGTIFPVAGYSLGFLLARIAGLPWYRCRTVAFETGMQNTQLCSTIVQLSFTPEELNVVFTFPLIYSIFQLAFAAIFLGFYVAYKKCHGKNKAEIPESKENGTEPESSFYKANGGFQPDEK |
| binds | – | His-tagged NTCP (Na+/Taurocholate Cotransporting Polypeptide) (protein, UniProt Q14973 1-349) MEAHNASAPFNFTLPPNFGKRPTDLALSVILVFMLFFIMLSLGCTMEFSKIKAHLWKPKGLAIALVAQYGIMPLTAFVLGKVFRLKNIEALAILVCGCSPGGNLSNVFSLAMKGDMNLSIVMTTCSTFCALGMMPLLLYIYSRGIYDGDLKDKVPYKGIVISLVLVLIPCTIGIVLKSKRPQYMRYVIKGGMIIILLCSVAVTVLSAINVGKSIMFAMTPLLIATSSLMPFIGFLLGYVLSALFCLNGRCRRTVSMETGCQNVQLCSTILNVAFPPEVIGPLFFFPLLYMIFQLGEGLLLIAIFWCYEKFKTPKDKTKMIYTAATTEETIPGALGNGTYKGEDCSPCTA |
| – | binds | NTCP, endogenous in human liver (protein, UniProt Q14973 1-349) MEAHNASAPFNFTLPPNFGKRPTDLALSVILVFMLFFIMLSLGCTMEFSKIKAHLWKPKGLAIALVAQYGIMPLTAFVLGKVFRLKNIEALAILVCGCSPGGNLSNVFSLAMKGDMNLSIVMTTCSTFCALGMMPLLLYIYSRGIYDGDLKDKVPYKGIVISLVLVLIPCTIGIVLKSKRPQYMRYVIKGGMIIILLCSVAVTVLSAINVGKSIMFAMTPLLIATSSLMPFIGFLLGYVLSALFCLNGRCRRTVSMETGCQNVQLCSTILNVAFPPEVIGPLFFFPLLYMIFQLGEGLLLIAIFWCYEKFKTPKDKTKMIYTAATTEETIPGALGNGTYKGEDCSPCTA |
